# From PubChem BioAssay AID720708 (National Center for Advancing Translational Sciences (NCATS), 2013)
# The whole screen tested about 360,000 compounds, of which about 660 (0.18%) were called active. Inconclusive means that the source gave no clear call. Such entries were picked first, then a sample of the others. The call rests on the fitted dose curve; in most records, active means well fitted inhibition curve with a large enough effect; inconclusive means small, poorly fitted or top-dose-only effect; inactive means no such curve, though single readings can be large or run the other way. No potency is given beside an inconclusive call; the fits are too rough.
# Biological target: Rap guanine nucleotide exchange factor 4 (Homo sapiens) (UniProt Q8WZA2)
# Sequence of UniProt Q8WZA2 (Q8WZA2 whole entry, looked up): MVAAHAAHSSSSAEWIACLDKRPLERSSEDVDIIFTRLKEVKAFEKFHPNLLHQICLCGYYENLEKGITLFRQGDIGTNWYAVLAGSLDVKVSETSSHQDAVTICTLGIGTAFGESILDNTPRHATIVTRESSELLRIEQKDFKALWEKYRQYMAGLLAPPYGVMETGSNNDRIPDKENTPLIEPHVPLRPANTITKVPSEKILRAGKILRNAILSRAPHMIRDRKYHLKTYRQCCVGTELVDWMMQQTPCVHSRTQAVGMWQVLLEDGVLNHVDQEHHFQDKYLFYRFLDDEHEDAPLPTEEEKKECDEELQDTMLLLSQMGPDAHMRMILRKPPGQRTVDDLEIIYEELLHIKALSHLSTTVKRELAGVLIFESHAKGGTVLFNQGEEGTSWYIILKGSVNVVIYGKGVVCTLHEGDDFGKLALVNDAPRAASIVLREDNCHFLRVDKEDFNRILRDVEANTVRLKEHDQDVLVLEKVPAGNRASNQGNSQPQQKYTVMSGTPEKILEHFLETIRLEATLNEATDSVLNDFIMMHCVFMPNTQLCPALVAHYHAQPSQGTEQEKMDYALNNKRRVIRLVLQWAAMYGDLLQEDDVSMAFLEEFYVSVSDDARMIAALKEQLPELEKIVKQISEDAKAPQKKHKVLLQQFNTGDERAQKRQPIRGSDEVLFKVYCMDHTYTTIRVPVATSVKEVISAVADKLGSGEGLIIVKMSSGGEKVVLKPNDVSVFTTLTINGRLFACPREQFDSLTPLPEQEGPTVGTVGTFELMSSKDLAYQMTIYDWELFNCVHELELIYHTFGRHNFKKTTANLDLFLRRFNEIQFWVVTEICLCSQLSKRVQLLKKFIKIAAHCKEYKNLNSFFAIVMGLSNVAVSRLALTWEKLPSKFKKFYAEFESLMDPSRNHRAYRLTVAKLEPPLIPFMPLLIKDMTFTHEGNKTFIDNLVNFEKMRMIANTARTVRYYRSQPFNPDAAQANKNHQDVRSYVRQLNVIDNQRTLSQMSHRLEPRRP
# Test: qHTS for Antagonist of cAMP-regulated guanine nucleotide exchange factor 2 (EPAC2): primary screen; further: nearly all actives have a fitted effect of over 45% in size
# Settings: EPAC2 GEF exchange of Rap1B-BODIPY-GDP, fluorescence; activity, negative = inhibition: at 114 µM (top of the series) unless noted
# Excerpt: In multi-cellular eukaryotic organisms, the effects of cAMP are transduced by two ubiquitously-expressed intracellular cAMP receptors, the classic protein kinase A/cAMP-dependent protein kinase (PKA/cAPK) and the more recently discovered exchange protein directly activated by cAMP/cAMP-regulated guanine nucleotide exchange factor (EPAC/cAMP-GEF). Both PKA and EPAC are ubiquitously expressed in all tissues, and an increase in intracellular cAMP levels will lead to the activation of both PKA and EPAC. Therefore, careful dissections of the individual role and relative contribution of EPAC and PKA within the overall cAMP signaling in various model systems are critical for further elucidating the mechanism of cAMP signaling. To date no EPAC-specific antagonists and agonist, as well as isoform-specific agonists have been reported, and developing EPAC-specific pharmacological probes to determine the physiological functions that EPAC play in the overall cAMP-mediated signaling remains a major challenge within the research field. Furthermore, identified regulators of EPAC may lead to new mechanism-based therapeutic strategies specifically targeting the EPAC / cAMP-signaling components as EPAC has been implicated to play important roles in major human pathological conditions such as diabetes, heart disease, and cancer.
# This qHTS will be used to screen the Molecular Libraries Small Molecule Repository (MLSMR) as a concentration-titration series using the NCGC unique quantitative screening (qHTS) platform to find inhibitors for EPAC2. In addition, this assay will also be used as a counterscreen for the EPAC1 qHTS. This fluorescent based assay is developed and validated for EPAC2 that measures exchange using EPAC effector Rap1 complex with BODIPY-GDP, a GDP analog with a tethered fluorophores. Inhibitors are identified by monitoring the change in fluorescence signal as the exchanged free BODIPY-GDP has a reduced fluorescence compared to Rap1-bound BODIPY-GDP. Decrease in signal (inhibition) is the desired outcome for the EPAC2 antagonist while no activity in this assay is desired for the EPAC1 antagonist counterscreen.
# NIH Chemical Genomics Center [NCGC]
# NIH Molecular Libraries Probe Centers Network [MLPCN]
# Assay Submitter (PI): Xiaodong Cheng, The University of Texas, Medical Branch
# Briefly, three uL of reagents (100 nM EPAC2, 250 nM RAP1B-BODIPY-GDP, 50 uM GDP) were dispensed into a 1536-well Greiner black solid-bottom medium binding assay plate. Controls and test compounds (23 nL) were transferred to the plate via a Kalypsys pin tool equipped with a 1536-pin array. The plates were centrifuged at 1,000 rpm for 15 seconds followed by 5 minute incubation at room temperature. The assay plates were read at 5 minute intervals for 30 minutes in the ViewLux plate reader using 480nm excitation and 540nm emission filters. The results were normalized to the agonist positive control ATA and DMSO.
# On the % scale 0 is the no-effect control and ±100 the full control effect; potency means the concentration at half of the fitted maximal effect; tags describe the fitted curve by direction and shape.
Compound,Potency,"activity, negative = inhibition"
O=NNc1nc2ccccc2n1Cc1ccccc1,inactive,
COc1cc(/C=C2/SC(=O)NC2=O)ccc1Oc1ccc([N+](=O)[O-])cc1[N+](=O)[O-],"inconclusive [inhibitor, single point]",
COc1ccc(NS(=O)(=O)c2cc(NC(=O)COc3ccccc3F)ccc2OC)cc1,"inconclusive [inhibitor, single point]",
CCc1ccc(Nc2n[n+](-c3ccccc3)c(-c3ccc(OCc4ccccc4)cc3)s2)cc1,inactive,
COCCNCc1ccccc1[N+](=O)[O-],inactive,
COCC(=O)N(C)C[C@H]1N[C@@](Cc2ccccc2)(C(=O)OC)[C@H]2C(=O)N(C)C(=O)[C@@H]12,"inconclusive [inhibitor, partial curve]",
COc1ccc(-c2ccc(C(=O)NCCN3CCOCC3)c3occc23)c(C)c1,"inconclusive [inhibitor, single point]",
Nc1nc2c(ncn2[C@@H]2O[C@H](CNCc3ccccc3)[C@@H](O)[C@H]2O)c(=O)[nH]1,"inconclusive [inhibitor, single point]",
COc1ccc(N=Nc2cc(OC)c(N)cc2OC)cc1,"inconclusive [inhibitor, partial curve]",
COc1ccc(C(C#N)c2nc3ccccc3nc2Cl)cc1 (stereo unspecified),"inconclusive [inhibitor, partial curve]",
CCCCCCCCN1C(=O)[C@H](CC(=O)N2CCN(C(=O)OCC)CC2)C[C@@]2(C(=O)OC)CC(C)(C)CC=C12,"inconclusive [inhibitor, partial curve]",
CC(=O)C(=Cc1ccc(Cl)cc1)C(=O)c1ccccc1,"inconclusive [inhibitor, full curve]",
COCCN(C(=S)Nc1c(C)cc(C)cc1C)C(C)c1cccs1 (stereo unspecified),"inconclusive [inhibitor, partial curve]",
COc1ccc(C[C@H]2CN3C(=NC[C@H]3Cc3ccccc3)N2CCNC(=O)CCC2CCCCC2)cc1,inactive,
Cc1onc(-c2ccccc2)c1-c1nnc(-c2ccccc2C(F)(F)F)o1,"inconclusive [inhibitor, partial curve]",
CCCN1C(=O)c2ccccc2NC1c1ccc(Br)cc1 (stereo unspecified),"inconclusive [inhibitor, partial curve]",
COc1ccccc1CC(=O)Nc1cccc(F)c1,"inconclusive [inhibitor, partial curve]",
O=C1C=C(Nc2ccccc2)CC(c2ccccc2)C1 (stereo unspecified),,inconclusive: -15.7% [inhibitor]
Cc1cn([C@H]2C[C@H](O)[C@@H](CCC(=O)NCC3CCCO3)O2)c(=O)[nH]c1=O (stereo partly specified),"inconclusive [inhibitor, single point]",
COCc1nnc(NC(=O)c2ccc(S(=O)(=O)N3CCCc4ccccc43)cc2)o1,"inconclusive [inhibitor, partial curve]",
COc1ccc(C2=CC(=O)C[C@H](CN3C(=O)c4ccccc4C3=O)N(C(=O)OC(C)(C)C)O2)cc1,,inconclusive: -32.6% [inhibitor]

Compound,Potency,"activity, negative = inhibition"
CC(=O)N/N=C/C1=CCC2CC1C2(C)C (stereo unspecified),inactive,
NNC(=O)CN1C(c2cccc(Cl)c2)=Nc2ccc(Br)cc2C1c1ccccc1 (stereo unspecified),inactive,
Cc1ccc(SC(C)C(=O)N2CCN(c3ccccc3)CC2)cc1 (stereo unspecified),"inconclusive [inhibitor, partial curve]",
CCOC(=O)C1CCCCN1C(=O)/C(=C/c1ccc(OC)cc1)c1ccc(OC)c(OC)c1 (stereo unspecified),"inconclusive [inhibitor, partial curve, poor fit]",
Cc1nnnn1-c1ccc(CC(=O)O)cc1,"inconclusive [inhibitor, partial curve]",
C[C@@H]1CC=C[C@H]2[C@H]1C(=O)N(Cc1ccccc1)[C@H]2c1ccc(-c2ccoc2)cc1F,"inconclusive [inhibitor, full curve]",
CC(C)CC1Nc2ncnc(N3CCN(c4ccccn4)CC3)c2N(Cc2ccccc2)C1=O (stereo unspecified),"inconclusive [inhibitor, single point]",
COc1cc(/C=N/NC(=O)c2ccccn2)ccc1OC(=O)c1ccc(Br)cc1,"inconclusive [inhibitor, partial curve]",
Cc1cc(C)c(C)c(OCC(=O)O/N=C(\N)c2cccnc2)c1,"inconclusive [inhibitor, full curve, poor fit]",
O=c1cc(-c2ccc(O)cc2)oc2cc(O)c(C3OC(CO)C(O)C(O)C3O)c(O)c12 (stereo unspecified),"inconclusive [inhibitor, single point]",
COc1ccc(/C=C/C(=O)c2ccc3c(c2)OCO3)c(OC)c1,"inconclusive [inhibitor, partial curve]",
COc1ccc2cc(/C=C3\SC(=S)NC3=O)c(N3CCOCC3)nc2c1,"inconclusive [inhibitor, partial curve]",
Cc1cccc(C)c1NC(=O)C1(C)CN(S(C)(=O)=O)CC(=O)N1CCc1c[nH]c2ccccc12 (stereo unspecified),inactive,
COc1cc2c(cc1OC)C(COc1ccc([N+](=O)[O-])cc1)N(C(C)=O)CC2 (stereo unspecified),"inconclusive [inhibitor, partial curve]",
CC(=O)C(Cc1cccc(F)c1)(Cc1cccc(F)c1)C(C)=O,inactive,
CCC(C)CCN1C(Nc2ccccc2)=NC[C@@H]1C (stereo partly specified),inactive,
CC1(C(=O)NS(=O)(=O)c2ccccc2Cl)CCN1C(=O)C1(c2ccc(Cl)cc2)CCC1 (stereo unspecified),"inconclusive [inhibitor, full curve]",
Cc1ccc([N+](=O)[O-])cc1NC(=O)c1ccc(-c2ccccc2)cc1,"inconclusive [inhibitor, single point]",
COc1cc(C(=O)OCC(=O)NCc2ccccc2)cc(NC(=O)c2ccco2)c1OC,"inconclusive [inhibitor, single point]",
CCOC(=O)c1sc2nc3c(SCC(=O)O)cc(C(=O)c4cc(F)ccc4O)cn3c(=O)c2c1C,"inconclusive [inhibitor, partial curve]",
